Reference: the RNAGym collection of RNA variant scans (doi:10.1093/nar/gkz1192)
The source gives no read counts; variants with many changes may rest on few reads.

B1: CPEB3 Ribozyme (parent)
chain: UAACAGGGGGCCACAGCAGAAGCGUUCACGUCGCAGCCCCUGUCAGAUUCUGGUGAAUCUGCGAAUUCUGCUGUAUAUCUC

Variants of: B1
Experiment: self-cleavage, relative activity (ratio to wild type); higher = more cleavage; in vitro, sequencing
Procedure, shortened: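 CPEB3 self-cleaving ribozyme mutant libraries were made by rounds of error-prone PCR, barcoded, and transcribed in vitro with T7 RNA polymerase for 5 hours at 37°C. Cleavage occurred during transcription and a 15 min DNase I step before EDTA stop. RNAs were reverse transcribed with template switching and Illumina-sequenced, with DNA sequencing mapping barcodes to variants. Relative activity is the variant's cleaved/total read fraction divided by wild type's (minimum 5 reads), averaged across three batches.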
In the case of UAACAGGGGGCCUCAGCGGAAGCGUUCACGUCGCAGCCCCCGUCAGAUUCUGGUGAAUCUGCGAAUUCUGCUGUUUAUCUC [A13U A18G U41C A75U], the self-cleavage is reported as 0.96.
UAACAGGGGGCCUCAGCGGCGGCGUUCACGUCGCUGCCCCUGUCAGAUACUGGUGAAUCUGCGAAUACUGCUGUAUAUCUC [A13U A18G A20C A21G A35U U49A U67A] gave a self-cleavage of 0.05.
Work on UAACAGGGGGCCUCGGCAGAAGCGCUCACGUCGCAGCCCCGGUCAGAUUCUGGUGAAUCUGCGAAUUCUGCUGUAAGUCUC [A13U A15G U25C U41G U76A A77G] yielded a self-cleavage of 0.1.
UAACAGGGGGCCUCAGCUGAAGCGUUCACGUCGCUGCCCCUGUCAGAUUCUGGUGAAUCUGCGAAUUCUGCUGUAUAUCUC [A13U A18U A35U] showed a self-cleavage of 0.22.
Work on UAACAGGGGGCCUCGGCAGAAGCGUUCACGUCGCAGCCCCUGUCAGAUUCAGGUGGAUCUGCGAAUUCUGCAGUAUAUCUC [A13U A15G U51A A56G U72A] yielded a self-cleavage of 0.45.
Work on UAACAGGGGGCCUCAGCAGGGGCGUGCACGUCGCAGCCCCCGUCAGAUUCCGGUGAAUCUGCGAAUUCUGCUGUAUAUCCC [A13U A20G A21G U26G U41C U51C U80C] yielded a self-cleavage of 0.05.
In the case of UAACAGGGGGCCGCAGCAGAAGCGUUCACGUCGCAGCCCCUGUCAGAUUCUGGUGAACCAGCGAAUUCUGCUGUAUAUCUC [A13G U58C U60A], the self-cleavage is reported as 0.12.
UAACAGGGGGCCUCAGCGGAAGCGUUCACGUCGCAGCCCCAGUCAGAUUCUGGUGAACCUGCGAAUUCUGCUGUAUAUCUC [A13U A18G U41A U58C] showed a self-cleavage of 0.07.
In the case of UAACAGGGGGCCUCGGCAGAAGCGUUCACGUUGCAGCCCCUGUCAGAUUCCGGUGAAUCUGCGAAUUCUGCUGUAUAUCUC [A13U A15G C32U U51C], the self-cleavage is reported as 0.19.
For UAACAGGGGGCCUCAGCGGAAGCAUACACGUCGCAGCCCCUGUCAGACUCUGGUGAAUCUGCGAAUUCUACCGUAUAUCUC [A13U A18G G24A U26A U48C G70A U72C], the self-cleavage was 0.08.
With UAACAGGGGGCCGCAGCAGAAGCGUUCACGUCGCAGCCCCUGUCAGAUUCUGGCGAAUCUACGAAUUCUGCUGUAUAUCUC [A13G U54C G61A] the self-cleavage was 0.36.
With UAACAGGGGGCCUCAGCGGAAGCGUUCGCGUCGCAGCCCCUGUCAGAUUCUGGUGAAUCUGCGAAUUCUGCUGUAUAUCUC [A13U A18G A28G] the self-cleavage was 0.35.
In the case of UAACAGGGGGCCUCAGCGGUAGCGUUCACGUCGCAGCCCCUGUCAGGUUCUGAUGAAUCUGCGAAUUCUGCUGUAUAUCCC [A13U A18G A20U A47G G53A U80C], the self-cleavage is reported as 0.08.
UAACAGGGGGCCGCAGCAGAAGCGUUCACGUCGCAGCCCCUGUCAGAUUCCGGCGUAACUGCGAAUUCUGCUGUAUAUCUC [A13G U51C U54C A56U U58A] gave a self-cleavage of 0.25.
With UAACAGGGGGCCGCAGCAGAAGCGUUCACGUCGCAGCCCCUGUCAGAUUCGGGUGAAUCUGCGAAUUCUGCUGUAUGUCUC [A13G U51G A77G] the self-cleavage was 0.6.
UAACAGGGGGCCUCAGCUGAAGCGUUCACGUCGCAGCCCCUGUCAGAUUCUGGUGAAUCUGCGAAUUCUGCUGUAUACCUC [A13U A18U U78C] gave a self-cleavage of 0.61.
For UAACAGGGGGCCUCGGCAGAAGCGUUCACGUCGCAGCCCCUGUCAGACUCUGGUGAAUCUGAGAAUUCUGCUGUAUAUCUC [A13U A15G U48C C62A], the self-cleavage was 0.32.
UAACAGGGGGCCUCCGCAGAAGCGUUCACGUCGCAGCCCCUGUCAGAUUCUGGUGAAUCUGCGGAUUCUGCUGCUUAUCUC [A13U A15C A64G U74C A75U] gave a self-cleavage of 0.39.
UAACAGGGGGCCUCUGCAGAAGCGUACACGUCGCAGCCCCUGUCAGAUUCAGGAGAAUCUGCGAAUUCUGCUGUAUAUCUC [A13U A15U U26A U51A U54A] gave a self-cleavage of 0.33.
UAACAGGGGGCCUCAGCGGAAGCGUUCACGGCGCAGCCCCUGACAGAUUCUGGUGAAUCUGCGAAUUCCGCCGUAUAUCUC [A13U A18G U31G U43A U69C U72C] showed a self-cleavage of 1.03.
Variant UAACAGGGGGCCUCGGCAGAUGCGUUCCCGUCGCAGCCCCCGUCAGAUUCUGGUGGAUCUGCGAAUUCUGCUGUAUACCUC [A13U A15G A21U A28C U41C A56G U78C] has a self-cleavage of 0.03.
In the case of UAACAGGGGGCCUCUGCAGGAGCGUUCACGUCGCAGCCCCUGCCAGAUUCUGGUGAAUCUGCGAAUUCUGCUGUAUAUCAC [A13U A15U A20G U43C U80A], the self-cleavage is reported as 0.1.
UAACAGGGGGCCUCAGCGGAAGCGUUCACGUCGCAGCCCCUGUCAGAUUCUGGGGAAUCUCCGAAUUCUGCUGCAUAUCUC [A13U A18G U54G G61C U74C] showed a self-cleavage of 0.26.
UAACAGGGGGCCGCAGCAGAAGCGUUCACGUCGCAGCCCCUGUCAGAUUCUGGUGAAUCUGCGAAUUCAGCUGUAUGUCUC [A13G U69A A77G] showed a self-cleavage of 0.47.
Variant UAACAGGGGGCCUCUGCAGAAGCGUUCACGUCGCAGCCCCUGUCAGAUUCUGGUGAAUCUGCGAAUCCUGCCGUAUAUCUC [A13U A15U U67C U72C] has a self-cleavage of 0.18.
With UAACAGGGGGCCUCAGCUGAAGCGUUCACGUCGCAGCCCCUGUCAGAUUCUGGUGAAUCUGCGUAUUCUGCUGUAUAUCUC [A13U A18U A64U] the self-cleavage was 0.19.
For UAACAGGGGGCCUCAGCGGUAGCGUUCACGUCGCAGCCCCUGUCAGAUUCUGGUGAACCUGCGAACUCCGCUGUAUAUCAC [A13U A18G A20U U58C U66C U69C U80A], the self-cleavage was 0.07.
Variant UAACAGGGGGCCUCCGCAGAAGCGUUCGCGUCGCGGCCCCUGUCAGAUUCCGGUGAAUCUGCGAAUUCUGCUAUAUAUCUC [A13U A15C A28G A35G U51C G73A] has a self-cleavage of 0.75.
Work on UAACAGGGGGCCGCAGCAGAAGCGUUCACGUCGCAGCCCCUGUCAGAUUCUGGUGAAUCAGCGAUUUCUGCUGUAUAUCUC [A13G U60A A65U] yielded a self-cleavage of 0.11.
UAACAGGGGGCCGCAGCAGAAGCGUUCACGUCGCAGCCCCUGUCAGAUUCUGGCGAAUCUGCGAAUUCUGUCGUAUAUCUC [A13G U54C C71U U72C] showed a self-cleavage of 0.1.
For UAACAGGGGGCCUCGGCUGAAGCGUUCACGUCGCAGCCCCUGUCAGACUCUGGUGGAUCUGCGAAUUCUGCUGUAUGACUC [A13U A15G A18U U48C A56G A77G U78A], the self-cleavage was 0.07.
UAACAGGGGGCCUCGGCAGGAGCGUUCACGUCGCAGCCCCUGUCAGAUUCUGGUGAAUCUGCGGAUUCUGCUGUAUAUCUC [A13U A15G A20G A64G] showed a self-cleavage of 0.29.
Work on UAACAGGGGGCCUCGGCAGAAGCGUCCACGUCGCAGCCCCUGUCAGAUUCUGGUGAAUCUGCGAAUUCUGCUGUAUAUCUC [A13U A15G U26C] yielded a self-cleavage of 0.25.
Variant UAACAGGGGGCCGCAGCAGAAGCGUUCACGUCGCAGCCCCUGUCAGAUUCUGGCGAAACCGCGAAUGCUGCUGUAUAUCUC [A13G U54C U58A U60C U67G] has a self-cleavage of 0.03.
